About 14,000 (4.5%) of roughly 310,000 compounds showed an effect of 50% or more. Effects have a minus sign here. The list shows a part of the results.
Each compound was assayed against human ether-à-go-go-related gene (hERG) potassium channel (human, UniProt Q12809) (assay: primary screen, population patch clamp on CHO cells stably expressing hERG).
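Further: peak tail current of the secondary pulse compared with the same well before compound.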

human ether-à-go-go-related gene (hERG) potassium channel, sequence (Q12809 whole entry, looked up): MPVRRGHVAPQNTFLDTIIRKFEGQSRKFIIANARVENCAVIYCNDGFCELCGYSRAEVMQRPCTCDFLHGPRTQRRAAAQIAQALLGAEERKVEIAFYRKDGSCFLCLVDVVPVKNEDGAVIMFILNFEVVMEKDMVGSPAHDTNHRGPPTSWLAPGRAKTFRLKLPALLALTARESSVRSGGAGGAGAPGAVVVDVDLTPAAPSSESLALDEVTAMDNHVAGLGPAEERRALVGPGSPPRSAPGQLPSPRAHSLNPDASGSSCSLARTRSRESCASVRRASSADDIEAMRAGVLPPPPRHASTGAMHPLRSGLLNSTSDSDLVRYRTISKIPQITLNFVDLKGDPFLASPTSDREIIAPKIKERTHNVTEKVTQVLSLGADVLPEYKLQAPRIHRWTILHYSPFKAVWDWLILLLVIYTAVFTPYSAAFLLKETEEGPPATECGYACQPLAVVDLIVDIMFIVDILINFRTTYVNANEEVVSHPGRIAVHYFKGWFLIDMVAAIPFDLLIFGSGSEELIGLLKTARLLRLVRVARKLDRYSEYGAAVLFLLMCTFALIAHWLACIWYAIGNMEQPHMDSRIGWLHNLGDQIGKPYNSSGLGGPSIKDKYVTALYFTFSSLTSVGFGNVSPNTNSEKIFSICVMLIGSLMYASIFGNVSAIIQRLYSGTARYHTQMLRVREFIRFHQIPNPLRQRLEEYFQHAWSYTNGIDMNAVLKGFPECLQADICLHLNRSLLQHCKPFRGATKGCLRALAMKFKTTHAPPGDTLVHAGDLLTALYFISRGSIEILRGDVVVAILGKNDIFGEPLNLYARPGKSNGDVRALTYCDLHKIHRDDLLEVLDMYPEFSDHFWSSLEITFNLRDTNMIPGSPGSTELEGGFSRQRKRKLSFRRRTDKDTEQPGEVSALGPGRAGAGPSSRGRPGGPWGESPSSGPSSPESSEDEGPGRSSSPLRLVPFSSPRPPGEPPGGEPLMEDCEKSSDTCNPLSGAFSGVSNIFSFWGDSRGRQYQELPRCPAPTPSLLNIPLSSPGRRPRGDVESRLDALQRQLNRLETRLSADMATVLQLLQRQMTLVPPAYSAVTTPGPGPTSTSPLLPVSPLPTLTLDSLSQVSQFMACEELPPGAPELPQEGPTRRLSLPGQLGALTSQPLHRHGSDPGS

Row | SMILES | hERG current change (%, negative = inhibition) at 10uM
1 | Cc1ccc(-c2nc(CSCC(=O)NC3CCN(Cc4ccccc4)CC3)c(C)o2)cc1 | -44%
2 | O=C(COC(=O)c1ccc(CO)cc1)Nc1ccc(OC(F)F)cc1 | -3.17%
3 | COC(=O)C(C)Oc1cc(C)cc2oc(=O)c3c(c12)CCC3 (stereo not drawn) | -12.7%
4 | CCCCOc1ccc(NC(=O)CSc2nnnn2C)cc1 | -2.43%
5 | O=C(Nc1ccc2c(c1)OCCO2)c1ccc(Cl)c(Cl)c1 | 2.3%
6 | CC(C)Cn1c(=O)c(C(=O)N/N=C/c2cccc(F)c2)c(O)c2ccccc21 | 8.46%
7 | Nc1ncnc2c1ncn2CCN1CCOCC1 | -5.44%
8 | CCn1c(SCC(=O)N2CCCc3ccccc32)nc2cccnc21 | 11%
9 | CCC(C(=O)Nc1ccon1)c1ccccc1 (stereo not drawn) | 2.45%
10 | Cc1ccccc1-n1nc(-c2cccnc2)cc1C(=O)N/N=C/c1ccncc1 | -28.5%
11 | COc1cccc(C2Nc3ccccc3NC3=C2C(=O)CC(C)(C)C3)c1 (stereo not drawn) | 4.03%
12 | C[C@H](O)c1[nH]c2cc(F)ccc2c1[C@H](C)O | 14%
13 | CCOC(=O)c1c(NC(=O)COC(=O)c2ccc(O)cc2)sc(C(=O)NC)c1C | -4.31%
14 | CCN(c1ccc(OC)cc1)S(=O)(=O)c1ccc2c(c1)NC(=O)CS2 | 0.887%
15 | COC(=O)C1=C(NC(=O)CCCCl)CCS1 | 4.44%
16 | Nc1c(-c2ccsc2)cnc2ncnn12 | 3.99%
17 | COc1ccc(CCNC(=S)N2CCN(S(=O)(=O)c3ccccc3F)CC2)cc1 | -3.68%
18 | COc1ccc(C(=O)CSc2nnc(C3CC3)n2N)cc1 | -20.7%
19 | c1ccc(OCCCn2nnc(-c3cccnc3)n2)cc1 | -9.25%
20 | CC(=O)Nc1ccc(S(=O)(=O)N2CCN(CC(O)COc3ccc4ccccc4c3)CC2)cc1 (stereo not drawn) | -22.6%
21 | O=C(c1cccs1)N1CCc2ccccc2C1 | 15.7%
22 | Br.NCc1cc(=O)[nH]o1 | 2.7%

Row | SMILES | hERG current change (%, negative = inhibition) at 10uM
23 | COc1ccc(NS(=O)(=O)c2ccc3c(c2)NC(=O)CO3)c(OC)c1 | 5.54%
24 | CCOC(=O)C1=C(C)N=C2SCCC(=O)N2[C@@H]1c1cccs1 | 5.23%
25 | CC1CCN(S(=O)(=O)N2CCC(C(=O)NCCN3CCOCC3)CC2)CC1 | -0.384%
26 | O=C(O)c1cnn2c(C(F)(F)F)cc(-c3ccccc3)nc12 | 8.78%
27 | CC(C)c1nnc(NC(=O)c2ccc(S(=O)(=O)N3CCOCC3)cc2)s1 | 6.52%
28 | Cc1csc(NC(=O)c2ccc3nc[nH]c3c2)n1 | -20%
29 | Cc1ccc(Oc2nnc(-c3ccc(C)cc3)c3ccccc23)cc1 | 2.75%
30 | COc1cc(NC(=O)Cn2c(=O)n(CC3CCCO3)c(=O)c3cc(OC)c(OC)cc32)cc(OC)c1 (stereo not drawn) | 9.3%
31 | O=C(Nc1ccccc1)C1CCCCN1S(=O)(=O)c1ccccc1 (stereo not drawn) | 1.13%
32 | O=S(=O)(c1ccccc1F)N1CCN(c2nc(-c3cccnc3)nc3ccccc23)CC1 | -41.9%
33 | COc1ccc(-n2nc(C(=O)NCC(=O)N3CCN(Cc4ccccc4)CC3)c3ccccc3c2=O)cc1 | -25.7%
34 | Nc1nc2c3ccccc3nc(C3CC3)n2n1 | 15.3%
35 | CCOc1ccc(-c2cc(C(=O)NCCCn3ccnc3)c3cc(Br)ccc3n2)cc1 | 7.06%
36 | CN1CCN(Cc2cn3cccnc3n2)CC1 | 18.2%
37 | COc1cc(/C=N\NC(=O)c2ccc(Cn3nc([N+](=O)[O-])c(Cl)c3C)o2)ccc1O | -70.4%
38 | O=C(NC1CCN(S(=O)(=O)c2ccccc2C(F)(F)F)CC1)c1ccco1 | -21.5%
39 | CCC(=O)NC(=S)Nc1ccc(NC(=O)c2cccc([N+](=O)[O-])c2C)cc1 | 18.1%
40 | CC(CC(=O)N(C)CC(=O)Nc1ccc(N2CCOCC2)cc1)c1ccccc1 (stereo not drawn) | -13.3%
41 | CC(=O)NC/C(C)=N\Nc1ccc([N+](=O)[O-])cc1 | -31.9%
42 | CCn1nc(C)c(C2C(C#N)=C(N)Oc3n[nH]c(C)c32)c1C (stereo not drawn) | 17.8%
43 | COc1ccccc1-n1c(CCn2nc(C)c(Br)c2C)n[nH]c1=S | 12.2%
44 | O=C(NNC(=O)c1ccccc1C(=O)O)c1ccc(O)cc1 | 9.6%

Row | SMILES | hERG current change (%, negative = inhibition) at 10uM
45 | COc1cc(C(C2C(=O)CC(C)(C)CC2=O)C2C(=O)CC(C)(C)CC2=O)cc(OC)c1OC | 11.4%
46 | O=C(c1ccc(CSc2nc3ccncc3[nH]2)cc1)N1CCN(c2cccc(Cl)c2)CC1 | -17.6%
47 | Cc1ccc2occ(/C=N/NC(=O)c3ccc(Cl)cc3)c(=O)c2c1 | 16.1%
48 | CN1CCN(S(=O)(=O)c2cccc(C(=O)NC3CCCc4ccccc43)c2)CC1 (stereo not drawn) | -7.42%
49 | COc1ccc(C(=O)Nc2ccc3c(c2)OCCO3)cc1 | -1.06%
50 | CCOC(=O)C1CCCN(C(=S)Nc2cc(C)cc(C)c2)C1 (stereo not drawn) | -10.2%
51 | COCCNC(=O)CCn1nc(-c2ccc(Cl)cc2)c2ccccc2c1=O | -28%
52 | CN1C(=O)C(Cc2ccc3c(c2)OCO3)C(=O)N(C)C1=O | 6.84%
53 | Cc1cccc(C)c1NC(=O)CSc1nc2c([nH]1)c(=O)n(C)c(=O)n2C | 3.49%
54 | Cc1ccc(C#CC[N+]2(CC#Cc3ccc(C)cc3)CCCCC2)cc1.[Br-] | -106%
55 | Cc1c(Br)c(=O)oc2c(Br)c(O)c(O)cc12 | -2.64%
56 | CC12CCC(C/C1=N/NC(=O)COc1ccccc1Cl)C2(C)C (stereo not drawn) | -2.79%
57 | O=C(CCCCn1c(=O)c2ccccc2n(CC(=O)Nc2cccc(F)c2)c1=O)NCc1ccco1 | 7.96%
58 | CCOc1ccc(N=Cc2c(O)n(C(C)(C)C)c(=O)[nH]c2=O)cc1 | 4.87%
59 | COc1ccc2nc(-c3ccc(F)cc3)sc2c1 | 5.25%
60 | Cc1ccccc1-c1nc(CN2CCC(C(=O)NC3CCCCC3)CC2)c(C)o1 | -67.7%
61 | CCOC(=O)C1C(=O)NC23CCCC2C1c1ccccc1O3 (stereo not drawn) | 10.4%
62 | O=C(Nc1cccnc1)c1cccc(S(=O)(=O)Nc2cccc(Cl)c2)c1 | -5.23%
63 | Cc1c2c(nc3nnnn13)CCCC2 | 2.25%
64 | O=C(CC1NCCNC1=O)OCc1ccccc1 (stereo not drawn) | -19.9%
65 | O=C(NC1CCCCC1)C(c1ccccc1)N(Cc1ccc2c(c1)OCO2)C(=O)c1cnsn1 (stereo not drawn) | -22.9%
66 | CCOc1ccccc1N1CC(C(=O)NNC(=O)c2ccc(F)cc2)CC1=O (stereo not drawn) | 7.14%

Row | SMILES | hERG current change (%, negative = inhibition) at 10uM
67 | Cc1cc2c(cc1S(=O)(=O)CCC(=O)N(C)Cc1ccccc1)OCC(=O)N2 | -35%
68 | N#Cc1c(=O)c2nc(NCc3ccccc3)ncc2n2ccccc12 | -15.7%
69 | Cc1ccccc1C(=O)N1CCCC(CCC(=O)N2CCN(c3ccccn3)CC2)C1 (stereo not drawn) | 13%
70 | COc1ccc(S(=O)(=O)N2CCN(CC(=O)Nc3cccc(F)c3)CC2)cc1 | -54.1%
71 | O=C(NC(=S)NCc1ccccc1)C1CCCCC1 | -9.56%
72 | COc1ccc2c(=O)c(Oc3ccc(C(=O)O)cc3)c(C(F)(F)F)oc2c1 | -0.624%
73 | O=C(C1=C[C@@H](c2csc3ccccc23)C[C@@H](OCc2ccc(CO)cc2)O1)N1CCN(Cc2ccc3c(c2)OCO3)CC1 | 1.69%
74 | CCC1=C2CC[C@H]3C(=O)N(C)C(=O)[C@H]3[C@H]2[C@@]2(Cc3ccccc3)C(=NCC(=O)OC)OC(=O)N2C1=O | 2.92%
75 | CCN(CC)CCNC(=O)c1ccc(Cl)c(S(=O)(=O)Nc2ccccc2OC)c1 | -24.4%
76 | Brc1ccccc1/C=N/N1CCCCC1 | 16.6%
77 | COc1ccc(NC2=NCC(Cc3ccc(Br)cc3)S2)cc1 (stereo not drawn) | -21.6%
78 | COC(=O)C1=C(c2ccc(-c3ccccc3)c(F)c2)C[C@@H]2CC[C@H]1N2C(=O)N1CCC(C)CC1 | 3.53%
79 | CC(C)CNC(=O)COC(=O)c1ccc([N+](=O)[O-])cc1Cl | -10.7%
80 | COc1ccc(C)cc1NC(=O)C1CCN(S(=O)(=O)c2ccc3c(c2)C(C)(C)C(=O)N3C)CC1 | 15.5%
81 | Cc1cccc(C(C)C)c1NC(=O)c1cc2ccccc2o1 | 0.137%
82 | Oc1c(N=NC(=S)Nc2ccccc2F)c2ccccc2n1Cc1ccc(F)cc1 | 18.7%
83 | O=C(Cn1cc(C(F)(F)F)ccc1=O)N1CCc2ccccc2C1 | 3.64%
84 | CCCCNC(=O)CCn1c(=O)c2ccccc2n(CC(=O)Nc2ccccc2OCC)c1=O | 11.9%
85 | O=C(NCC(=O)N(Cc1ccco1)C(C(=O)NC1CCCCC1)c1cccnc1)c1ccco1 (stereo not drawn) | 13%
86 | O=S(=O)(NCCSCc1c(Cl)cccc1Cl)c1ccc2c(c1)OCCO2 | -10.5%
87 | Cc1ccc(S(=O)(=O)N2CCc3ccccc3C2CN2C(=O)c3ccccc3C2=O)cc1 (stereo not drawn) | -4.25%

Source: publication PMC4336329 (PLoS ONE, 2015)
